PubChem BioAssay AID588342 (National Center for Advancing Translational Sciences (NCATS), 2011)
Screen size: about 360,000 compounds; about 25,000 (6.9%) were called active. The shares of active, inactive and inconclusive entries below differ from those in the screen. Calls come from the whole dose curve; as a rule, active = well fitted inhibition curve with a large enough effect; inconclusive = small, poorly fitted or top-dose-only effect; inactive = flat fitted curve, though single readings scatter. Potencies of inconclusive entries are doubtful fits and often do not repeat.

Molecular target: Luciferin 4-monooxygenase (Photinus pyralis) (UniProt P08659)
Test: qHTS profiling assay for firefly luciferase inhibitor/activator using purifed enzyme and Km concentrations of substrates (counterscreen for miR-21 project); note: nearly all actives have a fitted effect of over 55% in size
Conditions: purified FLuc, luminescence inhibition; series mostly up to 57.5 µM
How it was run: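 Purified P. pyralis luciferase (10nM final) with 10uM D-luciferin and 10uM ATP (Km levels) in 50mM Tris acetate pH 7.5, 10mM Mg acetate, 0.01% Tween-20, 0.05% BSA; qHTS 6-point titration, ~60 µM downward; luminescence read.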
Potency is the fitted concentration of half-maximal effect; tags give direction and shape of the fitted curve.

UniProt P08659, sequence (P08659 whole entry, looked up): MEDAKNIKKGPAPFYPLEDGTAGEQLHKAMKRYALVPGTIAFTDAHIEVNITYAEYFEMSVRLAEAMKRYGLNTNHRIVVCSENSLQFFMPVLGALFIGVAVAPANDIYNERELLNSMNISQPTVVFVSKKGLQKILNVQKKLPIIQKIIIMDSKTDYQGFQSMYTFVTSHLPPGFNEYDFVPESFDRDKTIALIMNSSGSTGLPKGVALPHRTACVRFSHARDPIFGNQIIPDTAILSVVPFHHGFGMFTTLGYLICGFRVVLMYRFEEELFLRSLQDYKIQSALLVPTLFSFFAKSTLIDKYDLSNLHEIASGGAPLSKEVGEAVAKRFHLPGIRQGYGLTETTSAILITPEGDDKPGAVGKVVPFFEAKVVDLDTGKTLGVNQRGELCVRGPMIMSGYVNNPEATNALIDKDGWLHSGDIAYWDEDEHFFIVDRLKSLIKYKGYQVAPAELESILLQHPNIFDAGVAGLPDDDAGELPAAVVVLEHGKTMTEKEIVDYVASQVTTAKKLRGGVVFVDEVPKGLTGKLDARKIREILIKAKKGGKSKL

Row | SMILES | Potency
1 | Cc1oc(-c2ccccc2)nc1C(=O)Nc1nccs1 | inconclusive: 8.49 µM [inhibitor, partial curve, poor fit]
2 | Cc1ccccc1OCC(=O)Nc1ccc(-c2nc3ccccc3o2)cc1 | inactive
3 | O=C(Nc1cccc(-c2nc3ncccc3o2)c1)c1ccco1 | inconclusive: 26.9 µM [inhibitor, single point]
4 | CN(C)c1ccc(NC(=O)CN2CCc3ccccc3C2)cc1 | active: 23.9 µM
5 | COc1ccc(NC(=O)c2cccc(C(=O)Nc3ccc(OC)cc3)n2)cc1 | active: 5.36 µM
6 | CC1(C2(O)CC(c3ccccc3)ON2)CCCCC1 (stereo not drawn) | inconclusive: 21.3 µM [inhibitor, partial curve]
7 | CCOC(=O)C1CCCN(c2nc3c(S(=O)(=O)c4ccc(CC)cc4)nnn3c3ccsc23)C1 (stereo not drawn) | inactive
8 | COc1ccc(CCNc2oc(Cc3ccccc3)nc2C#N)cc1OC | inactive
9 | Cc1cc(C)c(S(=O)(=O)c2ccccc2)c(OC(=O)c2c(F)cccc2F)n1 | inactive
10 | Cc1nc(N)sc1-c1csc(Nc2cccc(O)c2)n1 | active: 10.7 µM
11 | CCCNS(=O)(=O)c1ccc(NC(=O)Cc2cccs2)cc1 | inconclusive: 26.9 µM [inhibitor, partial curve, poor fit]
12 | O=C(O)c1ccc(CSc2nc3ccc(NC(=O)c4ccccc4C(=O)O)cc3s2)cc1 | active: 16.9 µM
13 | CCOC(=O)N1CCN(C(=O)/C=C/c2ccc3c(c2)OCO3)CC1 | inconclusive: 37.9 µM [inhibitor, partial curve, poor fit]
14 | Nc1c(S(=O)(=O)O)cc(NC(=O)c2ccccc2)c2c1C(=O)c1ccccc1C2=O | inconclusive: 21.3 µM [inhibitor, partial curve, poor fit]
15 | Clc1ccc(-c2nc(Cc3ccccc3Cl)no2)cc1 | active: 15.1 µM
16 | Cc1ccc(S(=O)(=O)N2CCCCC2)cc1C(=O)OC(C)C(=O)NC1CCCCC1C (stereo not drawn) | inactive
17 | O=C(NC1=NCCS1)c1ccc(C(F)(F)F)cc1 | active: 10.7 µM
18 | COc1ccc(NC(=O)CN2C(=O)CC(c3ccc(C)c(C)c3)=Nc3ccccc32)cc1OC | active: 13.5 µM
19 | COc1ccc(Cc2nc3ccc(C(=O)NCc4ccccc4C)cc3o2)cc1 | inactive
20 | O=C(Nc1nc2ccccc2c2nc3ccccc3n12)c1ccc(F)cc1 | inactive
21 | COc1cc(-c2nnc(SCC(=O)Nc3ccc4c(c3)OCCO4)o2)cc(OC)c1OC | inconclusive: 16.9 µM [inhibitor, single point]
22 | Clc1c(OCCCn2ccnc2)ccc2ccccc12 | inconclusive: 23.9 µM [inhibitor, single point]
23 | CCn1c(C)nnc1SCC(=O)Nc1ccc(N2CCOCC2)cc1 | inconclusive: 26.9 µM [inhibitor, single point]
24 | COc1cccc(NC(=O)CSc2nnc(Cc3ccc(C)cc3)c(=O)n2N)c1 | inconclusive: 33.8 µM [inhibitor, partial curve, poor fit]
25 | O=c1c(/C=C(\O)c2ccc(F)cc2)nc2ccccc2n1-c1ccccc1 | inconclusive: 8.49 µM [inhibitor, partial curve]

Row | SMILES | Potency
26 | CCCCCCn1nc(C(=O)N(CCOC)c2c(N)n(CCCC)c(=O)[nH]c2=O)c2ccccc2c1=O | inactive
27 | COc1ccc(N2CCN(C(=O)CS(=O)Cc3nc(-c4ccc(OC)c(OC)c4)oc3C)CC2)cc1 (stereo not drawn) | inactive
28 | O=C(Nc1nc(-c2ccc(Cl)cc2)cs1)C1=COCCO1 | active: 23.9 µM
29 | CC(C)(C)C1CCc2c(sc(NC(=O)c3cc4ccccc4c(=O)o3)c2C(N)=O)C1 (stereo not drawn) | inactive
30 | COC(=O)c1ccc(NC(=S)NC2CCCCC2)cc1 | inconclusive: 26.9 µM [inhibitor, partial curve, poor fit]
31 | Cc1nn(Cc2cccc(F)c2)c(C)c1NC(=O)c1ccc(COc2ccccc2Cl)cc1 | inactive
32 | c1ccc(Cn2c3ccccc3c3nnc(SCCN4CCCCC4)nc32)cc1 | inconclusive: 30.1 µM [inhibitor, partial curve, poor fit]
33 | Cc1ccc(O)c(-c2cc(-c3ccccc3F)[nH]n2)c1 | active: 13.5 µM
34 | COCC(=O)NC1(c2nnnn2CCOC(=O)Nc2ccc(Cl)cc2)CCCCC1 | inconclusive: 37.9 µM [inhibitor, partial curve, poor fit]
35 | O=C1Oc2ccccc2C(=O)/C1=C\N1CCN(c2ccccc2)CC1 | inconclusive: 37.9 µM [inhibitor, partial curve, poor fit]
36 | Cc1ccc(C)c(NC(=O)CN(C)S(=O)(=O)c2cccc3nsnc23)c1 | inactive
37 | Cc1ccc(OCC(=O)c2ccc(Cl)s2)c([N+](=O)[O-])n1 | inconclusive: 37.9 µM [inhibitor, single point]
38 | O=C(COC(=O)c1cccc(S(=O)(=O)NCc2ccccc2)c1)c1ccccc1 | inconclusive: 21.3 µM [inhibitor, partial curve]
39 | Cc1nc2ccccc2c(=O)n1/N=C/c1ccccc1F | inconclusive: 23.9 µM [inhibitor, single point]
40 | Cc1c(C)c2ccc(OCC(=O)Nc3ccccn3)cc2oc1=O | active: 0.338 µM
41 | CC1CCCN(C(=O)CNC(=O)c2cccs2)C1 (stereo not drawn) | inconclusive: 12 µM [inhibitor, partial curve]
42 | COc1ccc(NC(=O)c2ccc(-n3cccn3)c([N+](=O)[O-])c2)cc1 | inconclusive: 37.9 µM [inhibitor, partial curve, poor fit]
43 | O=C(c1ccc(Cl)cc1)N1CCN(CCc2ccccn2)CC1 | inactive
44 | O=C(NCCc1cccs1)C1CC(c2ccccc2[N+](=O)[O-])=NO1 (stereo not drawn) | active: 15.1 µM
45 | CC1CCN(c2nn3c(=O)c(C(=O)NCCCOC(C)C)cnc3s2)CC1 | inactive
46 | COc1ccccc1NC(=O)c1ccc2c(c1)C(=O)N(c1ccccc1OC)C2=O | inconclusive: 30.1 µM [inhibitor, partial curve, poor fit]
47 | O=C(CSc1cn(Cc2ccccc2)c2ccccc12)Nc1nccs1 | active: 0.849 µM
48 | O=C(Nc1cccc(S(=O)(=O)N2CCCCC2)c1)c1ccco1 | inactive
49 | CCCc1cc(C(=O)Nc2ccc(F)cc2F)no1 | active: 10.7 µM
50 | Cc1nc2ccccc2cc1OCc1ccc(Cl)cc1 | inconclusive: 15.1 µM [inhibitor, partial curve]

Row | SMILES | Potency
51 | O=[N+]([O-])c1ccc(CSC2=NCCS2)cc1 | inconclusive: 37.9 µM [inhibitor, single point]
52 | Cc1ccc(-c2nc(C)c(CCNC(=O)c3cccs3)s2)cc1 | inconclusive: 26.9 µM [inhibitor, partial curve]
53 | CC(C)(C)CC(=O)O/N=C(\N)c1ccncc1 | inconclusive: 30.1 µM [inhibitor, partial curve, poor fit]
54 | O=C(CSc1nnc(-c2ccco2)n1Cc1ccccc1)c1ccc(F)cc1 | inconclusive: 37.9 µM [inhibitor, single point]
55 | COc1ccc(-c2csc(NC(=O)C(CC(=O)O)N3CCOCC3)n2)cc1 (stereo not drawn) | inconclusive: 19 µM [inhibitor, partial curve]
56 | c1ccc(-c2ncc(CN3CCN(c4ccccn4)CC3)[nH]2)cc1 | inconclusive: 37.9 µM [inhibitor, partial curve, poor fit]
57 | Cc1[nH]ccc(=O)c1OCC(=O)O | inactive
58 | CC1CCCCN1C(=O)CSc1ccc(-c2ccc(F)cc2)nn1 (stereo not drawn) | inconclusive: 23.9 µM [inhibitor, single point]
59 | Cc1cccc(-c2nc(CN3CCCC(C(=O)N4CCN(c5cc(Cl)ccc5C)CC4)C3)c(C)o2)c1 (stereo not drawn) | inconclusive: 30.1 µM [inhibitor, partial curve, poor fit]
60 | CC1CCc2c(C(=O)Nc3ccccn3)csc2C1 (stereo not drawn) | active: 2.13 µM
61 | CCOC(=O)C1=C(C)NC2=C(C1c1ccc([N+](=O)[O-])cc1)S(=O)(=O)c1ccccc12 (stereo not drawn) | inactive
62 | CCOC(=O)c1sc(N)c(C(=O)Nc2ccccc2)c1C | inconclusive: 21.3 µM [inhibitor, single point]
63 | Cc1cc(/C=C2\NC(=S)N(C)C2=O)ccc1N1CCCC1 | active: 7.57 µM
64 | Cc1ccc(CSc2nc3cccnc3n2Cc2ccc(C(=O)NCc3ccco3)cc2)cc1 | active: 0.601 µM
65 | CC(C)C(NC(=O)CCNC(=O)c1ccc(C(C)(C)C)cc1)c1nc2ccccc2[nH]1 (stereo not drawn) | inconclusive: 2.39 µM [inhibitor, full curve]
66 | O=C(Cc1ccccc1F)OCN1C(=O)c2ccccc2C1=O | inconclusive: 30.1 µM [inhibitor, partial curve, poor fit]
67 | CC(=O)Nc1cccc(/C(C)=N/NC(=O)c2ccccc2Cl)c1 | inconclusive: 21.3 µM [inhibitor, partial curve, poor fit]
68 | CC(C)OC(=O)Cn1nnc(-c2ccccc2)n1 | inconclusive: 3.38 µM [inhibitor, partial curve, poor fit]
69 | Cc1noc(C)c1CSCC(=O)Nc1nc2ccc(Oc3ccccc3)cc2s1 | inconclusive: 37.9 µM [inhibitor, single point]
70 | Cc1ccc(/C=N/NC(=O)CSc2nc3ccccc3n2C)s1 | inconclusive: 5.36 µM [inhibitor, partial curve, poor fit]
71 | COc1cc(O)c2c(c1)OC(C)(C)CC2=O | inactive
72 | N#Cc1ccccc1S(=O)(=O)N1CCN(CC(O)COc2ccccc2F)CC1 (stereo not drawn) | inactive
73 | COc1ccc2cc3cc(C(=O)NCCN4CCc5ccccc5C4)sc3nc2c1 | inconclusive: 5.36 µM [inhibitor, partial curve, poor fit]
